# From PubChem BioAssay (NCATS)
# Several values for one entry are separate records, joined by “and”; a condition that tells them apart may be missing. Identical values can stand only once. The inconclusive results got no clear call from the source; some entries with a clear call stand among them for comparison. Potencies beside an inconclusive call are fits to weak or partial responses and may not hold up. Where a structure was tested more than once in an assay, its records may differ in their call. Activity calls are given as the source filed them. The call rests on the fitted dose curve; in most records, active means well fitted curve in the direction sought with a large enough effect; inconclusive means small, poorly fitted or top-dose-only effect, or another doubt; inactive means no such curve, though single readings can be large; an effect the other way counts as inactive or inconclusive.
# Tests used:
# [1] = NS1 protein of Zika virus - qHTS assay to identify small molecule inhibitors in human HEK 293 cells (AID 1347053); further: nearly all actives have a fitted effect of over 55% in size
# Outline: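 Read-out is a two-antibody TR-FRET for ZIKV NS1, normalized between uninfected cells and infected cells. Compound added 1 h before MR766 infection at MOI 0.5; human HEK 293 cells incubated 24 h, 37 C.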
# [2] = qHTS of pediatric cancer cell lines to identify multiple opportunities for drug repurposing: Primary screen for BT-37 cells (AID 1347094)
# Outline: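 Following a 5-hour attachment period, cells at 500-1,000/well received compounds and were cultured for 48 hours. CellTiter-Glo was added and luminescence read to estimate viable, metabolically active cells.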
# [3] = Quantitative High-Throughput drug screen in 47 multiple myeloma cell lines against the NCATS MIPE library collection: Karpas417_ECACC cell viability assay (AID 1918961); settings: Karpas417 myeloma viability, CellTiter-Glo ATP luminescence, 48 h; viability (% of DMSO): at 45.8 µM (top of the series);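 on viability (% of DMSO): 100% = DMSO only wells and 0% = media only wells without cells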
# Outline: (§1)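 Relative luminescence from CellTiter-Glo served as the viability signal, referenced to DMSO-treated (100%) and cell-free medium (0%) controls. Treatment lasted 48 hours at 37C with 500 cells per well.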
# [4] = Quantitative High-Throughput drug screen in 47 multiple myeloma cell lines against the NCATS MIPE library collection: KHM11_PLB cell viability assay (AID 1918962); settings: KHM11 myeloma cell viability, CellTiter-Glo ATP luminescence, 48 h; viability, % of DMSO control: at 45.8 µM (top of the series); further: nearly all actives have a fitted effect of over 35% in size;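 on viability, % of DMSO control: 0% = media only wells and 100% = DMSO treated cells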
# Outline: as §1
# [5] = Quantitative High-Throughput drug screen in 47 multiple myeloma cell lines against the NCATS MIPE library collection: KMS34_JCRB cell viability assay (AID 1918985); further: nearly all actives have a fitted effect of over 40% in size
# Outline: (§2)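 Readout: median RLU from CellTiter-Glo after 5 min at room temperature. Preceding step was 48 h drug treatment of 500 cells/well at 37 °C, 5% CO2, with DMSO-only and media-only control wells.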
# [6] = Quantitative High-Throughput drug screen in 47 multiple myeloma cell lines against the NCATS MIPE library collection: SKMM1_PLB cell viability assay (AID 1919863); settings: SKMM1 myeloma viability, CellTiter-Glo ATP, 48 h; viability: stronger effect = lower value; further: nearly all actives have a fitted effect of over 35% in size
# Outline: as §2
# [7] = Quantitative High-Throughput drug screen in 47 multiple myeloma cell lines against the NCATS MIPE library collection: UTMC2_PLB cell viability assay (AID 1919868); settings: CellTiter-Glo ATP luminescence, 48 h; viability (% of DMSO control): at 45.8 µM (top of the series); further: nearly all actives have a fitted effect of over 55% in size
# Outline: as §2
# MKL-1 = test: qHTS assay to identify novel small-molecules to repurpose for Merkel cell carcinoma treatment (AID 1296009); settings: MCC and control cell lines, CellTiter-Glo viability, 72 h; activity change, negative = cytotoxicity: at 46 µM (top of the series); further: nearly all actives have a fitted effect of over 60% in size; on activity change, negative = cytotoxicity: on the % scale 0 is the no-effect control and ±100 the full control effect
# Outline: (§3)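 Luminescence from CellTiter-Glo, read 10 min after addition at room temperature, reported viability following a 72 hr, 37 degree celsius treatment with NPC or MIPE compounds in titration; values normalized to plate controls.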
# WaGa = test: as above; settings: MCC and control cell lines, CellTiter-Glo viability, 72 h; series mostly up to 46 µM
# Outline: as §3
# [8] = qHTS of pediatric cancer cell lines to identify multiple opportunities for drug repurposing: Primary screen for DAOY cells (AID 1347090); settings: DAOY medulloblastoma viability, CellTiter-Glo luminescence, 48 h; activity change, negative = cytotoxic: at 46 µM (top of the series); further: nearly all actives have a fitted effect of over 55% in size
# Outline: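 Eight- or eleven-point concentration series, 48 h treatment at 37 degrees C in growth media; readout CellTiter-Glo luminescence. Potency and efficacy were taken from the concentration-response curves.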
# [9] = qHTS of pediatric cancer cell lines to identify multiple opportunities for drug repurposing: Primary screen for LAN-5 cells (AID 1347100)
# Outline: (§4)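 Cells (500-1,000/well) in growth media were settled 5 h at 37 degrees C, then given compounds for 48 h. Viability was read as CellTiter-Glo luminescence. Primary runs used MIPE at 11 points (0.78 nM-46 µM) and NPC at 8 points (0.59 nM-46 µM); follow-ups used 11 points.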
# KB-3-1 = test: Cytotoxic Profiling of Annotated Libraries Using Quantitative High-Throughput Screening (AID 1296008); settings: Five cell lines viability, CellTiter-Glo ATP luminescence, 48-72 h; max response: stronger effect = lower value; further: nearly all actives have a fitted effect of over 60% in size; on max response: on the % scale 0 is the no-effect control and ±100 the full control effect
# Outline: (§5)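 Compounds were pin-transferred onto cells and incubated 48 or 72 hr at 37 degree Celsius, 95% humidity. CellTiter-Glo was added, plates sat 10 min at room temperature, then ATP-coupled luminescence was imaged as the viability read-out.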
# [10] = qHTS of pediatric cancer cell lines to identify multiple opportunities for drug repurposing: Primary screen for U-2 OS cells (AID 1347096); further: nearly all actives have a fitted effect of over 50% in size
# Outline: as §4
# [11] = Quantitative High-Throughput drug screen in 47 multiple myeloma cell lines against the NCATS MIPE library collection: OCIMY1_PLB cell viability assay (AID 1918979); further: nearly all actives have a fitted effect of over 35% in size
# Outline: as §2
# HaCat = test: Cytotoxic Profiling of Annotated Libraries Using Quantitative High-Throughput Screening (AID 1296008); settings: Five cell lines viability, CellTiter-Glo ATP luminescence, 48-72 h; max response: stronger effect = lower value; further: nearly all actives have a fitted effect of over 60% in size
# Outline: as §5
# NIH3T3 = test: as above; settings: Five cell lines viability, CellTiter-Glo ATP luminescence, 48-72 h; max response: stronger effect = lower value
# Outline: as §5
# UISO = test: qHTS assay to identify novel small-molecules to repurpose for Merkel cell carcinoma treatment (AID 1296009); settings: MCC and control cell lines, CellTiter-Glo viability, 72 h; activity change, negative = cytotoxicity: at 46 µM (top of the series); further: nearly all actives have a fitted effect of over 60% in size; on activity change, negative = cytotoxicity: on the % scale 0 is the no-effect control and ±100 the full control effect
# Outline: as §3
# SKOV3 = test: Primary qHTS to identify gynecologic anti-cancer compounds using libraries of approved drugs and bioactive compounds (AID 1345084); settings: Gynecologic cancer cell panel viability, ATPlite luminescence, 48 h; series mostly up to 57.5 µM; further: nearly all actives have a fitted effect of over 55% in size
# Outline: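 Cells, 1,000 per well, were allowed to settle for 16 h at 37 C before compound addition. Five concentrations were tested for 48 h, and viability was read by ATPlite luminescence after 15 min at room temperature.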
# MKL-2 = test: qHTS assay to identify novel small-molecules to repurpose for Merkel cell carcinoma treatment (AID 1296009); settings: MCC and control cell lines, CellTiter-Glo viability, 72 h; activity change, negative = cytotoxicity: at 46 µM (top of the series); further: nearly all actives have a fitted effect of over 60% in size; on activity change, negative = cytotoxicity: on the % scale 0 is the no-effect control and ±100 the full control effect
# Outline: as §3
# MCC-13 = test: as above; settings: MCC and control cell lines, CellTiter-Glo viability, 72 h; series mostly up to 46 µM
# Outline: as §3
# Potency means the concentration at half of the fitted maximal effect; tags describe the fitted curve by direction and shape.
smiles,measurement,setting,value
NC(=O)c1ccc(-c2nc(-c3ccc4c(c3)OCO4)c(-c3ccccn3)[nH]2)cc1,Potency,[1],inactive
same,Potency,[2],"inconclusive: 8630 nM [cytotoxic, partial curve, poor fit]"
same,Potency,[3],"inconclusive: 10500 nM [rising, full curve, poor fit]"
same,Potency,[4],"inconclusive: 235 nM [rising, full curve]"
same,Potency,[5],active: 2640 nM
same,Potency,[6],"inconclusive: 4.2 nM [rising, full curve, poor fit]"
same,Potency,[7],"inconclusive: 33200 nM [rising, single point]"
same,Potency,MKL-1,inactive
same,Potency,WaGa,inactive
Cc1c(CCOc2ccc(C(=O)O)cc2)c2cc(Cl)ccc2n1C(c1ccccc1)c1ccccc1,Potency,[8],"inconclusive: 29600 nM [cytotoxic, single point]"
same,Potency,[2],"inconclusive: 27300 nM [cytotoxic, partial curve, poor fit]"
same,Potency,[9],"inconclusive: 33200 nM [cytotoxic, single point]"
same,Potency,[3],inactive
same,Potency,[4],inactive
same,Potency,[5],"inconclusive: 11800 nM [cytotoxic, single point]"
same,viability,[6],inactive: 110%
same,Potency,[7],"inconclusive: 16600 nM [cytotoxic, partial curve, poor fit]"
same,max response,KB-3-1,inactive: -12.2%
same,Potency,MKL-1,inactive
same,Potency,WaGa,inactive
COc1cccc2cc(-c3nc(C4CCC(C(=O)O)CC4)n4ncnc(N)c34)[nH]c12 (configuration not stated),Potency,[8],"inconclusive: 235 nM [cytotoxic, full curve]"
same,Potency,[2],"inconclusive: 137 nM [cytotoxic, full curve]"
same,Potency,[10],"inconclusive: 372 nM [cytotoxic, full curve, poor fit]"
same,Potency,[3],"inconclusive: 8.3 nM [cytotoxic, full curve, poor fit]"
same,Potency,[4],active: 118 nM
same,Potency,[11],active: 1050 nM
same,Potency,[5],"inconclusive: 1660 nM [cytotoxic, full curve, poor fit]"
same,Potency,[6],active: 1870 nM
same,Potency,HaCat,"inconclusive: 29100 nM [inhibitor, single point]"
same,Potency,KB-3-1,active: 2.35 µM
same,Potency,NIH3T3,active: 7310 nM
same,Potency,MKL-1,inactive
same,Potency,UISO,"inconclusive: 469 nM [inhibitor, full curve]"
same,Potency,WaGa,"inconclusive: 235 nM [inhibitor, full curve, poor fit]"
same,Potency,SKOV3,active: 11200 nM
Oc1cn2c(n1)Nc1ccc(Cl)c(Cl)c1C2,Potency,MKL-2,inactive
same,Potency,SKOV3,inactive
S=C(NCc1ccc2c(c1)OCO2)N1CCN(c2ncnc3c2oc2ccccc23)CC1,Potency,[1],"inconclusive: 67900 nM [inhibitor, single point]"
same,Potency,[2],"inconclusive: 4440 nM [cytotoxic, full curve]"
same,Potency,[10],"inconclusive: 1710 nM [cytotoxic, full curve, poor fit]"
same,Potency,[4],active: 855 nM
same,Potency,[11],active: 42900 nM
same,Potency,[5],inactive
same,Potency,[6],"inconclusive: 30300 nM [cytotoxic, partial curve, poor fit]"
same,Potency,[7],"inconclusive: 5.4 nM [cytotoxic, full curve, poor fit]"
same,Potency,KB-3-1,"inconclusive: 429 nM [inhibitor, full curve] and inconclusive: 2.91 µM [inhibitor, full curve]"
same,Potency,NIH3T3,"inconclusive: 48.1 nM [inhibitor, full curve, poor fit]"
same,Potency,MKL-1,"inconclusive: 3820 nM [inhibitor, full curve]"
same,Potency,MKL-2,"inconclusive: 2150 nM [inhibitor, full curve]"
same,Potency,UISO,"inconclusive: 2150 nM [inhibitor, full curve]"
same,Potency,WaGa,"inconclusive: 2700 nM [inhibitor, full curve]"
same,Potency,SKOV3,"inconclusive: 7080 nM [cytotoxic, full curve, poor fit]"
COc1cc2ncn(-c3cc(OCc4ccccc4C(F)(F)F)c(C(N)=O)s3)c2cc1OC,Potency,[1],"inconclusive: 296 nM [inhibitor, full curve]"
same,Potency,[8],active: 372 nM
same,Potency,[2],active: 19300 nM
same,Potency,[10],active: 23500 nM
same,Potency,[9],"inconclusive: 372 nM [cytotoxic, full curve]"
same,Potency,[3],active: 13200 nM
same,Potency,[11],"inconclusive: 1050 nM [cytotoxic, full curve]"
same,Potency,[5],"inconclusive: 166 nM [cytotoxic, full curve, poor fit]"
same,Potency,[7],"inconclusive: 14800 nM [cytotoxic, partial curve, poor fit]"
same,Potency,HaCat,"inconclusive: 1050 nM [inhibitor, full curve]"
same,Potency,MCC-13,"inconclusive: 5260 nM [inhibitor, full curve]"
same,Potency,MKL-1,"inconclusive: 2350 nM [inhibitor, full curve]"
same,Potency,MKL-2,inactive
same,Potency,UISO,"inconclusive: 4690 nM [inhibitor, full curve]"
same,Potency,WaGa,"inconclusive: 1660 nM [inhibitor, full curve]"
